Results taken from PMC7819943, “Rice protein-binding microarrays: a tool to detect cis-acting elements near promoter regions in rice”.
The other results are listed elsewhere or left out.

Target: T1, OsWOX13 (Oryza sativa, UniProt Q5QMM3 1-267)
T1 sequence: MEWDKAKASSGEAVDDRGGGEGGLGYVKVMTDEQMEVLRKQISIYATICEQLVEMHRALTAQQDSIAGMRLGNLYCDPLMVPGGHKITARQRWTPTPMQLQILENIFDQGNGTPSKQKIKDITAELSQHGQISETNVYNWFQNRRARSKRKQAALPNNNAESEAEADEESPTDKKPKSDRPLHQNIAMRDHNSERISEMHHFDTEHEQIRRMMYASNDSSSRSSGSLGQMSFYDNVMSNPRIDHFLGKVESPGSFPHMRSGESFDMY
Experiment: protein-binding microarray (RPBM); PBS, 2% BSA, 51.3 ng/ul salmon testes DNA, 50 uM zinc acetate, 200 nM TF, 25 C, 1 h; high values mean tight binding
Conditions: protein: recombinant; tags: N-terminal polyhistidine and DsRed monomer fusion (pET32a); label: CyDye5-dUTP incorporated in the synthesized complementary strand; 3' TTTTT single-stranded linker to array surface; dsDNA, one strand shown
Procedure, shortened: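 In PBS with 2% BSA, salmon testes DNA and 50 µM zinc acetate, 200 nM protein was incubated on a custom Agilent array at 25 °C for 1 h and then washed off. The array had been made double-stranded by primer extension with Cy5-dUTP and blocked with 2% BSA. The proteins were transcription factors fused N-terminally to polyhistidine and DsRed, expressed in E. coli BL21-CodonPlus and purified on Ni–NTA. The binding signal is per-feature fluorescence intensity (arbitrary units) from an Axon 4000B scanner.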

Sequence | binding signal
CCTTGTGATTGCTTTGCTCATCCCTCTTCGCTGCCCCACTCGGAGTCACCTAGTGCAG | 38200 fluorescence intensity (a.u.)
GGTAATTAAGTCACTAGCAAACTTTTGGCACAATTAAACTCGGAGTCACCTAGTGCAG | 7350 fluorescence intensity (a.u.)
ATTCAATCAATAATTGAATATATATTCATAATAAATTTGTCGGAGTCACCTAGTGCAG | 24600 fluorescence intensity (a.u.)
TTTACACTATAATTATATTCACTTATACATTGTAATTACACGGAGTCACCTAGTGCAG | 13800 fluorescence intensity (a.u.)
GTTAATTACTTGAACCACGTAAGAAAACAAGGACACATGCCGGAGTCACCTAGTGCAG | 10300 fluorescence intensity (a.u.)
CCCATATCTTGATTGAGCTTGTTGAGATTCCCCATGCACACGGAGTCACCTAGTGCAG | 32100 fluorescence intensity (a.u.)
GAGCCCATTTAGATTGATATCATTTTCAACCATACTATTTCGGAGTCACCTAGTGCAG | 19600 fluorescence intensity (a.u.)
ACTAATAGATCGTCTATCTTACGAACCACGGAGATCTCCACGGAGTCACCTAGTGCAG | 8120 fluorescence intensity (a.u.)
TGCAGTTATTTATCATTCAATTAGTGAAGCATAAACTCATCGGAGTCACCTAGTGCAG | 11300 fluorescence intensity (a.u.)
GGCACGTAATTAACAGTTTTATAGTATAATGTCAAGTCGCCGGAGTCACCTAGTGCAG | 29100 fluorescence intensity (a.u.)
TATATATATATATATATATATATATATATATATAAAGAGACGGAGTCACCTAGTGCAG | 35300 fluorescence intensity (a.u.)
TCGTTGATGGATATACTATTGTGGTTGATACTAGTGTTATCGGAGTCACCTAGTGCAG | 13500 fluorescence intensity (a.u.)
GTAACTGACAGGGTGGCCCCACTGTCACAGTGTCCCTACCCGGAGTCACCTAGTGCAG | 6090 fluorescence intensity (a.u.)
TGATCTATTAACGTGTGATTAATTAAGTATTACCTACCGTCGGAGTCACCTAGTGCAG | 23500 fluorescence intensity (a.u.)
GCTTATGATTATTATAATCTAAATTATTAGAAATAAGTTGCGGAGTCACCTAGTGCAG | 27100 fluorescence intensity (a.u.)
ATTCACTAATTTTCGGTTATTTAGGAAAGTGTAAACCCTGCGGAGTCACCTAGTGCAG | 13800 fluorescence intensity (a.u.)
AATCAATCTATATCGTTATAATCCGGACCGACCATGATCTCGGAGTCACCTAGTGCAG | 18800 fluorescence intensity (a.u.)
CCAAAATGTAATTTTAAAATTAAAATTTCAAAATCTATAACGGAGTCACCTAGTGCAG | 13200 fluorescence intensity (a.u.)
CCGTGCTGCATGATTGACCAAACAGACCATGTTGGTTTTGCGGAGTCACCTAGTGCAG | 29000 fluorescence intensity (a.u.)
TAGATAAATTTTACAATATATAACGGCTTTATTGAATGCTCGGAGTCACCTAGTGCAG | 5100 fluorescence intensity (a.u.)
AACCTGATTGAAAACTGCAGGTCTCAGAGCACGTAATCTACGGAGTCACCTAGTGCAG | 41800 fluorescence intensity (a.u.)

Sequence | binding signal
ATTGATGATTTAATGAAACTAATTTGATATTGTAGATGTTCGGAGTCACCTAGTGCAG | 48300 fluorescence intensity (a.u.)
TTAGATTGGTTATAGATAATTTGGAATGAGTAGTTGGCTACGGAGTCACCTAGTGCAG | 48000 fluorescence intensity (a.u.)
GAATCGCAGGATTGATAAAACGTAGGATTTTGATAGGAATCGGAGTCACCTAGTGCAG | 7170 fluorescence intensity (a.u.)
ACTACTTAACAGGTTTCAGTGTAGATCATCTACTTAGTTGCGGAGTCACCTAGTGCAG | 3170 fluorescence intensity (a.u.)
GATCTGTTGATTATATATGCCCATTTGAGCGGCCAGCGTCCGGAGTCACCTAGTGCAG | 8120 fluorescence intensity (a.u.)
AAAATATTACCCCAAATCATTACAATCACTAAAACCAAGCCGGAGTCACCTAGTGCAG | 3900 fluorescence intensity (a.u.)
ATTACACTGACAAATTGGCCCCACATGTCAGTGACTGGGCCGGAGTCACCTAGTGCAG | 11300 fluorescence intensity (a.u.)
ATAATGCAAAATTGCAATTTGCAACCCCACCATGCCATTTCGGAGTCACCTAGTGCAG | 5940 fluorescence intensity (a.u.)
TGGCTTTAATTATGTACCACGATGAGAAAGCATTAGATGCCGGAGTCACCTAGTGCAG | 8900 fluorescence intensity (a.u.)
ATGATTGGATAAGGATTGTGATTGGTGGAGAAGATAAAGTCGGAGTCACCTAGTGCAG | 50500 fluorescence intensity (a.u.)
TGTAATAATAATTTAATCGATCTTTCAAGGGGCATTCTCGCGGAGTCACCTAGTGCAG | 8040 fluorescence intensity (a.u.)
ATTCCAATCAATTGGTATGTCTCATATTTTGGCGCAGAAACGGAGTCACCTAGTGCAG | 16000 fluorescence intensity (a.u.)
AAATATTTGCGGTTGATTTGAAGAGTCGTCAGTTTGAGACCGGAGTCACCTAGTGCAG | 4420 fluorescence intensity (a.u.)
GACTTGTAATTTGTAGCAGTGGTAAGAAATAAATCTGACCCGGAGTCACCTAGTGCAG | 3900 fluorescence intensity (a.u.)
CTCATGATAGGGACAACAAAATATCCGGATTAATTCCACACGGAGTCACCTAGTGCAG | 4450 fluorescence intensity (a.u.)
CCATGGTTTTACTGATTTAGACATGTATTTTGGTCCGGATCGGAGTCACCTAGTGCAG | 3500 fluorescence intensity (a.u.)
ACTGAGTGTAATTTAATATTACATAGTACGAGTATATGATCGGAGTCACCTAGTGCAG | 4080 fluorescence intensity (a.u.)
GAGGTGATGACTGATGAGAGCCAGGCAGCCACCACCGCCGCGGAGTCACCTAGTGCAG | 6780 fluorescence intensity (a.u.)
CGATCAGCTCACTTGATTGGAGTACTCTATTTGTTTTAGACGGAGTCACCTAGTGCAG | 11600 fluorescence intensity (a.u.)
AACAATTATTTAAATACATATACGAATGAATTAAATGTTACGGAGTCACCTAGTGCAG | 3500 fluorescence intensity (a.u.)
TCACTGACAGATGGGGTCTACAAGATAACTCAGGCATTCACGGAGTCACCTAGTGCAG | 5640 fluorescence intensity (a.u.)
